In the RNAGym collection of RNA variant scans (doi:10.1073/pnas.2313332121):
This sample is rich in variants without activity.

B1: TPR 5TU (parent)
chain: GGAUCUUCUCGAUCUAACAAAAAAGACAAAUCUGCCACAAAGCUUGAGAGCAUCUUCGGAUGCAGAGGCGGCAGCCUUCGGUGGCGCGAUAGCGCCAACGUUCUCAACUAUGACACGCAAAACGCGUGCUCCGUUGAAUGGAGUUUAUCAUG

Variants of: B1
Experiment: polymerase ribozyme fitness, log enrichment relative to wild type (log ratio); higher = more active; in vitro selection for triplet polymerase activity
Summary of the method: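 Mutant libraries for each subunit of a heterodimeric triplet polymerase ribozyme were made by PCR and then transcribed. Each library underwent one round of in vitro selection in triplicate: annealing with a biotinylated primer, the partner subunit and triplets, frozen incubation at −7 °C, gel excision of extended constructs, streptavidin-bead capture and RT-PCR. Input and output libraries were Illumina-sequenced, and only genotypes with ≥10 input reads and ≥1 read per output were kept. Fitness is the logarithm, base 2, of genotype enrichment over wild-type enrichment, computed from inverse-variance-weighted replicate averages.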

Variant	polymerase ribozyme fitness (log ratio)
A49C C51G C69A G84C U104G C105G A106U A122U	≤ -4.2
A49C C51U C76A A113U G126A	≤ -4.2
A49C C54A U56A C125U G141C	≤ -4.2
A49C C54G A98G	≤ -4.2
A49C C57A C87U C116G	≤ -4.2
A49C C57A G68C G143C	≤ -4.2
A49C C63G C87U C93U U102G C116G U144A U145G C149U	≤ -4.2
A49C C69A A73U G94A C103U	≤ -4.2
A49C C69G U130A U146C U148G	≤ -4.2
A49C C72G	≤ -4.2
A49C C75A G81C C93G A106C U109A G136A	≤ -4.2
A49C C75A G94C A97G A120C C125U G133A	≤ -4.2
A49C C75G G83U G141A U146A	≤ -4.2
A49C C75G G88C A106G C125A	≤ -4.2
A49C C75U C85U C96A	≤ -4.2
A49C C76A	≤ -4.2
A49C C76G A91C A98G C116A G141C	≤ -4.2
A49C C79A C108U C123A	≤ -4.2
A49C C79G G94C	≤ -4.2
A49C C79U C103G C105A U139A G141C U148G	≤ -4.2
A49C C79U U151G	≤ -4.2
A49C C85A	≤ -4.2
A49C C85G A107G	≤ -4.2
A49C C87U C96A C114G C116U A121U	≤ -4.2

Variant	polymerase ribozyme fitness (log ratio)
A49C C93A C96A C103G A115G A138U	≤ -4.2
A49C C93A C103G G117U C149G	≤ -4.2
A49C C96A A119G C131U U145A	≤ -4.2
A49C C99U U135G C149U	≤ -4.2
A49C C116U	≤ -4.2
A49C C118A	≤ -4.2
A49C C125A	≤ -4.2
A49C G50C U56A	≤ -4.2
A49C G58C C95U U127G G152C	≤ -4.2
A49C G58C G59C G94U U101G C129G U139G	≤ -4.2
A49C G58C U82G A113U	≤ -4.2
A49C G59C A137G U146C	≤ -4.2
A49C G59C U77G C87G	≤ -4.2
A49C G59U U77C G81C U109G G141C	≤ -4.2
A49C G62A C63A C131G C132A	≤ -4.2
A49C G62A G94C A122U C132G A142C	≤ -4.2
A49C G68U A89G A97U U135G	≤ -4.2
A49C G70A C75G C93G A97C C116G C118G	≤ -4.2
A49C G71C U101G A137U A150U	≤ -4.2
A49C G74C C87A C125U	≤ -4.2
A49C G74U C79A C99U G124U	≤ -4.2
A49C G80A C85U C93A C108U G133U	≤ -4.2
A49C G80C G92A A106U A113C C118U G141U G143U C149G	≤ -4.2
A49C G81A C96U	≤ -4.2

Variant	polymerase ribozyme fitness (log ratio)
A49C G81U G84U C125G G141C A150U	≤ -4.2
A49C G83U	≤ -4.2
A49C G83U C93G C103U	≤ -4.2
A49C G84C	≤ -4.2
A49C G84C U90G C103G A115U	≤ -4.2
A49C G88U	≤ -4.2
A49C G92U U127C	≤ -4.2
A49C G94A C132A G143U	≤ -4.2
A49C G100C A121G	≤ -4.2
A49C G133C	≤ -4.2
A49C G141A	-3.79
A49C U53A C96G	≤ -4.2
A49C U55A A66U C69G A91U U109A U135G	≤ -4.2
A49C U55A C93U C132G C149G	≤ -4.2
A49C U55A G143C	≤ -4.2
A49C U56A A60U	≤ -4.2
A49C U56A A91U C93U C149U	≤ -4.2
A49C U56A C75A G86A	≤ -4.2
A49C U56A C85G C105G G143U	≤ -4.2
A49C U56A G88U A122C C125U	≤ -4.2
A49C U56C U82G	≤ -4.2
A49C U61G A91U C118A G141U U148A	≤ -4.2
A49C U78A G94U A113U C116G G140C	≤ -4.2
A49C U82C C87G	≤ -4.2

Variant	polymerase ribozyme fitness (log ratio)
A49C U101G U111A A115G	≤ -4.2
A49C U144A	≤ -4.2
A49G A52C A73G C75G G84U C93A A107U U111G U135C G140A	≤ -4.2
A49G A52C C95U C96A C99A	≤ -4.2
A49G A91C C93A A115U	≤ -4.2
A49G A91G	-4.05
A49G C51U C95G A137G U144A	≤ -4.2
A49G C57G G74C A107U U134G	≤ -4.2
A49G C69G G88A G133U A147U U148G	≤ -4.2
A49G C76A G94U A147G	≤ -4.2
A49G C79G C93G C99A U127C G140A	≤ -4.2
A49G C85G C93U	≤ -4.2
A49G C99G G126U G143A U144G	≤ -4.2
A49G C99U A150C	≤ -4.2
A49G C114U U144A	-4.06
A49G G50A C54A A66G U82A C108U C125A	≤ -4.2
A49G G50A C57U G88U A119C	≤ -4.2
A49G G50A C95U U145C	-2.54
A49G G50A U53A G58A G83C U144G	≤ -4.2
A49G G50A U56A C72A A91G	≤ -4.2
A49G G50C C95U A98G U145G	-2.77
A49G G50C U55A A66U G83A G84A U104A G133A A150G	≤ -4.2
A49G G68U A73U G81A U82C G83A U148G	≤ -4.2
A49G G74U G88A U144A	≤ -4.2

Variant	polymerase ribozyme fitness (log ratio)
A49G G83U	-1.22
A49G G94A U127C	-3.23
A49G G94C A97G A137G	≤ -4.2
A49G G94C G133U G152U	≤ -4.2
A49G G133C	-2.21
A49G G140C	-3.88
A49G U55A	-0.644
A49G U55A G83U C87G C103U	≤ -4.2
A49G U56A G81A G92U A122G A137G U148G	≤ -4.2
A49U A52C	-0.692
A49U A73U	≤ -4.2
A49U A89C U102A G141A U146C	≤ -4.2
A49U A110U G117U	≤ -4.2
A49U C54U	-1.34
A49U C54U G70C	≤ -4.2
A49U C54U U111A A113G A121U G133A	≤ -4.2
A49U C57A G83U C95U C149U	≤ -4.2
A49U C72U C76A A89U C93G C95G A98U	≤ -4.2
A49U C75A G92A A119U U130A A147U G152A	≤ -4.2
A49U C75G C85A C129G	≤ -4.2
A49U C85G	-2.96
A49U C85G C125U U144G U148C	≤ -4.2
A49U C85U C93G C132U	≤ -4.2
A49U C87A U101G G117U U130C	≤ -4.2

Variant	polymerase ribozyme fitness (log ratio)
A49U C99A A147U	≤ -4.2
A49U C116G C149U	-4.18
A49U G50C U148G	≤ -4.2
A49U G58A U102G A122U	-0.217
A49U G59A A115U A119C	-3.36
A49U G67A U77G C99A U109G U111G G133A G143U A147G	≤ -4.2
A49U G70C G117C	≤ -4.2
A49U G86A C87G A106C G136U A150C	≤ -4.2
A49U U53A A91U	≤ -4.2
A49U U53A G86A C87A A89G C114U	≤ -4.2
A49U U53A U55A G88A A115G C123U	≤ -4.2
A49U U53G C54A G74A G94A G152U	≤ -4.2
A49U U55A C57A G62C A110G A150G	≤ -4.2
A49U U56A G68C G92C C103A A115C C118U	≤ -4.2
A49U U56G G81A G94A U146G	≤ -4.2
A49U U61A G83C C85A C87G	≤ -4.2
A49U U82G	-0.129
G50A A52C	-3.13
G50A A52C G81C	-2.82
G50A A60U C96U U127A	-3.79
G50A A64C U82G U102G	≤ -4.2
G50A A91G G100A G140U A147C	≤ -4.2
G50A A91U C99U C103G C108U A137C G141C	≤ -4.2
G50A A110G	-3.88

Variant	polymerase ribozyme fitness (log ratio)
G50A A142C	-3.12
G50A C51U A73G C76U A89U C93U	≤ -4.2
G50A C54G C79G C85A	≤ -4.2
G50A C54G G88U A120U A142G	≤ -4.2
G50A C57A A66C G81U G86C A97C	≤ -4.2
G50A C57A C76G C93G	≤ -4.2
G50A C57A C85A A91C A98C A121U G128U U135G A142U G143A	≤ -4.2
G50A C57G A89C A110U U135C G140U	≤ -4.2
G50A C57G G83C C96U A107G G133C G136A U148C	≤ -4.2
G50A C69G C87G C116A	≤ -4.2
G50A C72U A98C C99A	≤ -4.2
G50A C75G G88C G143C	≤ -4.2
G50A C76A G92C C108G U144C	≤ -4.2
G50A C93G A106G C114A	≤ -4.2
G50A C93U C95A U111A G141U	≤ -4.2
G50A C96A	-2.68
G50A G58A A113G G117C G141C	≤ -4.2
G50A G58A C99U U144A	≤ -4.2
G50A G59C U90G	≤ -4.2
G50A G59U C75G U90G C95G	≤ -4.2
G50A G65A C75U C85A C95U C125G C131U	≤ -4.2
G50A G65A C85U	-3.49
G50A G71C G92A	≤ -4.2
